In publication PMC11373600 one finds binding data, which are given here for four molecules.

Sequences of proteins named here, by UniProt entry; tags and fusion partners are left off. A change or cut given only in a name is not applied to a line headed by its entry.
UniProt P36404: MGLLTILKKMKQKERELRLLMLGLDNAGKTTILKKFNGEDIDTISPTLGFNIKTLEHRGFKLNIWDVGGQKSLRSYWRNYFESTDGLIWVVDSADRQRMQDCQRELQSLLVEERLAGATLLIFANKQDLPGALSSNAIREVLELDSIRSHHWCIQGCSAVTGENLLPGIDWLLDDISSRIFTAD
UniProt P36405: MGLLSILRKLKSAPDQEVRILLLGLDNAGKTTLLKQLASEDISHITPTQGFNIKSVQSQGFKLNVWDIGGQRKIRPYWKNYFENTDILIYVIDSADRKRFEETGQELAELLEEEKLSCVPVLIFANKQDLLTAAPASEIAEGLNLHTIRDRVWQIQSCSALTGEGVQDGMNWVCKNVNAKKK

Numbering of substitutions follows the chain as printed. Like-named read-outs stand apart in the source and are kept apart here. These are yes or no findings as the source states them, for the method shown. Binding seen in cells or lysates may run through a third protein. Some binding calls cover weakened binding; strength is not graded here. Tags and fused reporters may be left off the sequences shown.

Assay [1] deals with T1, GFP-HsDAW1 (human) (UniProt Q8N136).
T1 sequence: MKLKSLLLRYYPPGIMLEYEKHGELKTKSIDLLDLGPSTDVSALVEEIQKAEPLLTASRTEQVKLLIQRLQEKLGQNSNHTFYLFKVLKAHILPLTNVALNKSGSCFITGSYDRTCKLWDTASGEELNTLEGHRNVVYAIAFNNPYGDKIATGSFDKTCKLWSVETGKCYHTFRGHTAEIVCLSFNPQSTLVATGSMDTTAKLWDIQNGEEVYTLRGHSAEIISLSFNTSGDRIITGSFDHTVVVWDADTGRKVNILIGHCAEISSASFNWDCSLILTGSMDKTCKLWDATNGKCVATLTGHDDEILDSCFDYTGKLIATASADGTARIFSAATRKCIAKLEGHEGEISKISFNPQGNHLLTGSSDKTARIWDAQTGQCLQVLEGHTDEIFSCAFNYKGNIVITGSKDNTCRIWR
Put plainly: co-IP; GFP-HsDAW1 or its disease variants coexpressed with HA-HsIFT88, HsARL2-HA or HsARL3-HA in HEK293T; GFP-Trap; 1% NP-40 lysis buffer diluted to 0.5%; 90 min at 4°C.

For assay [2], the target named is T2, GFP-HsDAW1(S364T) (human) (UniProt Q8N136).
T2 sequence: T1 sequence with S364T
Described as above.

Assay [3] has as its target T3, GFP-HsDAW1(W372C) (human) (UniProt Q8N136).
T3 sequence: T1 sequence with W372C
Described as above.

In assay [4] the target is T1, GFP-HsDAW1 (human). The description is as above. This is another data set of the same source.
For assay [5], the target named is T4, GFP-HsDAW1(N143D) (human) (UniProt Q8N136).
T4 sequence: T1 sequence with N143D
The description is as above.

Assay [6] has as its target T2, GFP-HsDAW1(S364T) (human). The description is as above. The source holds these as a separate data set.
Assay [7] has as its target T3, GFP-HsDAW1(W372C) (human). Described as above. This is another data set of the same source.
Assay [8] addresses HsARL2(Q70L)-3×HA (human) (UniProt P36404). Kind of assay: co-IP; HA-tagged HsARL2 or HsARL3 variants coexpressed with GFP-HsDAW1 in HEK293T; anti-HA IP resin; lysis buffer with 0.5% NP-40; 90 min at 4°C.
In a further assay the target is HsARL2-3×HA (human) (UniProt P36404). The description is as above.
Assay [9] concerns the target HsARL3(Q71L)-3×HA (human) (UniProt P36405). Described as above.
For assay [10], the target named is HsARL3(T31N)-3×HA (human) (UniProt P36405). Described as above.
The next assay deals with HsARL3-3×HA (human) (UniProt P36405). Described as above.

In the case of HsARL3-3×HA (from UniProt P36405 1-182), the binding result with GFP-HsDAW1 (human) [1] is on record as “binds”; in [2], “no binding”; in assay [3], “no binding”.

Consider HsARL2-3×HA (from UniProt P36404 1-184), for which the binding entry in the assay with GFP-HsDAW1 (human) [1] is on record as “binds”; in assay [2], “no binding”; in assay [3] it was “no binding”.

B1: 3×HA-HsIFT88 (protein, UniProt Q13099 1-824)
chain: MMQNVHLAPETDEDDLYSGYNDYNPIYDIEELENDAAFQQAVRTSHGRRPPITAKISSTAVTRPIATGYGSKTSLASSIGRPMTGAIQDGVTRPMTAVRAAGFTKAALRGSAFDPLSQSRGPASPLEAKKKDSPEEKIKQLEKEVNELVEESCIANSCGDLKLALEKAKDAGRKERVLVRQREQVTTPENINLDLTYSVLFNLASQYSVNEMYAEALNTYQVIVKNKMFSNAGILKMNMGNIYLKQRNYSKAIKFYRMALDQVPSVNKQMRIKIMQNIGVTFIQAGQYSDAINSYEHIMSMAPNLKAGYNLTICYFAIGDREKMKKAFQKLITVPLEIDEDKYISPSDDPHTNLVTEAIKNDHLRQMERERKAMAEKYIMTSAKLIAPVIETSFAAGYDWCVEVVKASQYVELANDLEINKAVTYLRQKDYNQAVEILKVLEKKDSRVKSAAATNLSALYYMGKDFAQASSYADIAVNSDRYNPAALTNKGNTVFANGDYEKAAEFYKEALRNDSSCTEALYNIGLTYEKLNRLDEALDCFLKLHAILRNSAEVLYQIANIYELMENPSQAIEWLMQVVSVIPTDPQVLSKLGELYDREGDKSQAFQYYYESYRYFPCNIEVIEWLGAYYIDTQFWEKAIQYFERASLIQPTQVKWQLMVASCFRRSGNYQKALDTYKDTHRKFPENVECLRFLVRLCTDLGLKDAQEYARKLKRLEKMKEIREQRIKSGRDGSGGSRGKREGSASGDSGQNYSASSKGERLSARLRALPGTNEPYESSSNKEIDASYVDPLGPQIERPKTAAKKRIDEDDFADEELGDDLLPE
Take B1: the binding entry (in the assay with GFP-HsDAW1 (human) [4]; in assay [5]; in assay [6]; in assay [7]) was “binds” throughout.

B2: GFP-HsDAW1 (protein, UniProt Q8N136 1-415)
chain: T1 sequence
Regarding B2, the binding result (in assay [8]; with HsARL2-3×HA (human); in [9]; in assay [10]; with HsARL3-3×HA (human)) was “binds” each time.
